In the RNAGym collection of RNA variant scans (doi:10.7554/elife.90254) one finds self-cleavage data, which are given here for 56 variants.

B1: LINE1-mini (parent)
chain: GGCAGAGCUCAACACAGCGUGGCAAAGUGGCUGUGGCUAGACUGCC

Read counts are not given, so values of variants with three or more changes are uncertain.

In the data set the parent is B1. Nature of the data set: self-cleavage, relative activity (ratio to wild type); higher = more cleavage; in vitro, sequencing; the parent is a self-cleaving ribozyme.
As for GGCAGCGCUCAACACAGCCUGGCAAAGUGGCUGUGGCUGGACUGCC, the self-cleavage came out at 0.13. The value for GGCAGCGCUCAACACAGCGUGUCAAAGUGGCUGUGGUUAGACUGCC was 0.02.

Regarding GGCAGCGCUCAAUACAGCGCGGCAAAGUGGCUGUGGCUAGACUGCC, the self-cleavage turned out to be 0.06. The value for GGCAGCGCUCAAAACUGCGGGGCAAAGUGGCUGUGGCUAGACUGCC was 0.02. With GGCAGCGCUCAACACAGCGUGGCAAAGUGCAUAUGGCUAGACUGCC the figure was 0.03. The value for GGCAGCGGUCAACACAGCGUGGCAAAGUGGAUGUGGCUAGACUGCC was 0.02. As to GGCAGCGCUCAACACAGCGUUGCAAAGUGGGUGUGGGUAGACUGCC, the self-cleavage is 0.02. With GGCAGCGCUCAACACACCGUGGCAAAGUGGCUCUGGCUAGACUGCC the figure was 0.1; with GGCAGCGCUGAACACACCGUGGUAAAGUGGCUGUGGCUAGACUGCC, 0.05.

As for GGCAGCGCUAAACACAGCAUGGACAAGUGGCUUUUGCUAGACUGCC, the self-cleavage turned out to be 0.02.

Consider GGCAGCGCUCAACACAGCGUGGCAAAGUUGAUGUGGCUAGACAGCC, for which the self-cleavage is 0.02. The value for GGCAGCGCUCAACACAGCGUGGCAAAAUCGCUGUGGCUAGAACGCC was 0.03; that for GGCAGCGCUCAACAAAGCGUGGCAAAGUGGCUGUGGGUAGACUGCC was 0.01. With GGCAGCGCUCAACACAACGUCGCUAAGUGGCUGUGGAUAGAUUGCC the figure was 0.05; with GGCAGCGCUCAACAGAGCGUAGCAUAGUGGCCGUGGCUAGACUCCC, 0.02; with GGCAGCGCUCAACACAGCGUUGCAAAGUGGCUCUGGCUAGACUGCC, 0.03. As for GGCAGCGCUCAACACAGCGCAGCAAAGUGGCUGUGGCGUGACUGCC, the self-cleavage is 0.01. The value for GGCAGCGCUCAACACAUCGUGGCAAAGUGGCUGUGGCUGGACUGCC was 0.02; that for GGCAGCGCGAAACACAGCGUGGCAAAGUGGCUGUGGCUAGACUGCC was 0.02; that for GGCAGCGCUCAACACACCGUGGCCAAGUGGCUGUGGCUAGACUGCU was 0.03. The value for GGCAGCGCUCAACACAAGGUGGCAAAGUGGCUGUGGGUAGACUGCC was 0.01; that for GGCAGCGCUCAAAACAGCGUGGGAAAGUUGUUGUGGCUAGACUGCC was 0.25. As for GGCAGCGGCCUACACAGCGUGGCAAAGUGGCUGUGGCUAGACUGCC, the self-cleavage was determined as 0.03. For GGCAGCGCUCAACACAGCGUGGCAAACUGGCUGUGGCUAUACUACC, the self-cleavage was determined as 0.51. With GGCAGCGCUCAACAGAGCGUGCAAAAGUGGCUGUGGCUAGACUGCC the figure was 0.03. The value for GGCAGCGCUCAACACAGAGUGGCAAAGUGGAUGUGGCAAGACUGCC was 0.04; that for GGCAGCCCUCAACACAGCGUGGCAAAGUGACUGUGGCUAGACUGCC was 0.8. The value for GGCAGCGGACAUCACAGCGUGGCAAAGUGGCUGUGACUAGAGUGCC was 0.02; that for GGCAGCACUCAACCCAGGGUGGCAAAGUGGCUGUGGCUAGACUGCA was 0.04. On to GGCAGCGCUCAACACAGCGUGGCAAAGUGCCUGUGAAUAGACUGCC, for which the self-cleavage was 0.1. Take GGCAGCGCUAAACACAGCGUGGCAAAGUGCCUGUGGCUAGACUCCC: the self-cleavage came to 0.01. The value for GGCAGCGCUCAACACAGCGAGGCAAAGUGGCUGUAGCUAGACUGCC was 0.15.

With GGCAGCGCUAAACACAGCAUGGCAAAGUGGCUGUGGCUAGGCUGCA, the self-cleavage stood at 0.05. As to GGCAGCGCUCAACAGUGCGUGGCAAAGUGGACGUGGCUAGACUUCC, the self-cleavage came to 0.03. With GGCAGCGCUCAACACAGGGUGGCAAAGUGGCUGUGGCUAGACCGCC the figure was 0.07. GGCAGCGUUCAACACAGCGUGGCAAACUGGCUGUGGCUAGACUGCU: the self-cleavage amounted to 0.21.

GGCAGCGCUCAACACAGCAGGGCAAAGUGGCUCUGGCUAGACUGCC: the self-cleavage amounted to 0.03. With GGCAGCGCUCAACACAGCGUGGCAAACUGGCUGCGGCUAUACUGCC the figure was 0.24; with GGCAGCGCUCAAAAAAGCGUGGCAAAGUGGCCGUGGCUAGACUGCC, 0.04; with GGCAGCGCUUAACACAGUGAGGCAAAGUGGCUAUGGCUCGACUGCC, 0.

As for GGCAGCGCUCAACACAGCGUGGAAAAGUGGAUGUGGCUAGACUGCC, the self-cleavage amounted to 0.03. With GGCAGCCCUCAACCCAGCGUGGCAAAGUGGCUGUUGCUAGACUGCC the figure was 0.06; with GGCAGCGCUCAACAGAGCGCGGCUAAUUGGCUGUGGCUAGACUGCC, 0.01; with GGCAGCGCUCAACACAGCGUGGCAAAGUGUUUGUGCCUAGACUGCC, 0.04. The value for GGCAGCGCUCAACACAGAGUAUCAAAGUGGCUGUGGCUAGAAUGCC was 0.1; that for GGCAGCGGUCAACGCAGCGUGGCAAAGUGGCUGUGUCUAGACUGCC was 0.03.

For GGCAGCGCUCAACACAGCCUGGCAAAGUGUCUGUGGCUAGACUGCC, the self-cleavage amounted to 1.46.

Turning to GGCAGCGCUCAACAAAGCGUGGAAAACCGGCUGUGGCUAGACUGCA, the self-cleavage was determined as 0.05. The value for GGCAGCGCUCAACAAAGCGUGGCAAAGUGGCUGUGGCGAGAACGCA was 0.02.

With GGCAGCGCUCAACACAGCGUUGUAAAGUGGCUGUGGCUCGACUGCC, the self-cleavage turned out to be 0.04.

For the variant GGCAGCGCUCAACACAUCGUGGCAAAGUGGCAGUGGCUAGACUGCC, the self-cleavage came to 0.04. With GGCAGCGCUGAACACAGCGGGGCAAAGUGGCUGUUGCUAGACUGCC the figure was 0; with GGCAGCGCUCAACAUAGCGUGGCAAGGUGGCUGUGACUAGACUGCC, 0.08; with GGCAGCCCUCAACACAGCGUGCCAAAGUAGCUGUGGCUACACUGAC, 0.03. With GGCAGCGCUCAACACAGGGUGGCAAAGUGGCUGUGGCUAGACUACC the figure was 0.04; with GGCAGCGCUGAACACAGCGUGGCAAAGUGGCUGUGGCUACACUGCC, 0.01.
